Results reported in the supplement of paper PMC3334620.
The full ranking holds about 33,000 sequences; the median of “E-score (-0.5 to 0.5)” is about -0.012, and the highest 2% start at about 0.27. This is one part of the list.

What follows are sequences tested against T1, Vhr1 (UniProt P40522) (assay: PBM E-score (8-mer binding enrichment) (E-score (-0.5 to 0.5)); higher = stronger / more preferred TF binding; most listed sequences are background and not binding sites). Conditions: protein concentration: 200 nM; construct: GST-full length.
T1 sequence: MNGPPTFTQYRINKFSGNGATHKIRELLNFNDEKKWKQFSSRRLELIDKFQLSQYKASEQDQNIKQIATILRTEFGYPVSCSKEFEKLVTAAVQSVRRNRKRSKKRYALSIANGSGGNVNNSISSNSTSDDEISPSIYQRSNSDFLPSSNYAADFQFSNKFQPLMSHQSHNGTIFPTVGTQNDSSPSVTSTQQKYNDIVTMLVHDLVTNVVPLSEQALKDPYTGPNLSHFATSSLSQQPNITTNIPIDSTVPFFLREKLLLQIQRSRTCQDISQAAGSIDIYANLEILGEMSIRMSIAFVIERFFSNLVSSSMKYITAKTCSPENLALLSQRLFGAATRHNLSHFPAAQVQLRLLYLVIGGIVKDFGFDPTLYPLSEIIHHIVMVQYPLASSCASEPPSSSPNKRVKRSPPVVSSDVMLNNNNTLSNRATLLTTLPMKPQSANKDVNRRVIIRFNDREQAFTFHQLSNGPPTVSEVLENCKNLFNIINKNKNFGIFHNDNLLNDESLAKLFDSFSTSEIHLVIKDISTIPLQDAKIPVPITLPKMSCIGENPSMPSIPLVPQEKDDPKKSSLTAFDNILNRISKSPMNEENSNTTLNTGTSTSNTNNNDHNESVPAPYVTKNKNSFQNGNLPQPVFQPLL
Summary of the method: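 Universal all-10-mer Agilent arrays, fresh or stripped once, were converted to double-stranded form by primer extension. GST-tagged yeast transcription factors from PURExpress in vitro transcription/translation, full-length or DNA-binding domain only, were applied at about 100-200 nM and detected with fluorescent anti-GST. After masliner normalisation, the Universal PBM Analysis Suite scored each ungapped eight-base word together with its reverse complement by E-score.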

Sequence	PBM E-score
AGCGAAAT	-0.184
GCGAAAGA	-0.209
GACAAAAA	-0.183
CGTTGCGC	-0.103
CAGTGATA	0.00123
AATTTAAG	-0.187
AATTCCAG	-0.136
CATCCTCA	0.126
CCATTGGG	-0.18
GGCAGTAC	-0.143
ATTTCAAG	-0.289
AAGAGAGA	-0.233
GCCGGTAC	0.0314
GTATACAA	0.172
GCGCATCC	-0.0491
ACATGTCC	-0.13
AAAAGCTT	-0.351
CAGTACAA	0.133
GTACGGGA	-0.129
AATCTCAC	-0.0657
CGTTAGTC	0.132
ATCTCCCG	-0.0912
ACTAGGAA	0.0492
CCGCCGAC	0.075
GCAAATGC	-0.279

Sequence	PBM E-score
ATCGAATC	0.193
AATTAGGT	-0.148
CGGACGTA	-0.138
AGCGACCA	-0.0305
CTCTGAAA	-0.12
ATTAAGCC	-0.171
AAGATTCT	-0.137
GGATGTAC	0.0103
GTTCACGA	-0.0674
CTCTACAG	-0.0399
CAGTTCTA	-0.0933
ATGGCTAA	0.142
ATAGCTAA	-0.106
AAACGCGG	-0.125
CTACTTTA	0.0794
CTCGTGTC	0.036
TGAGTCAA	0.419
AGCCAGCA	-0.0844
AACGGTAC	0.134
AATGATCA	0.0798
GCATTCGC	-0.216
CATCTATA	0.0881
CCGCCCGG	0.0777
GAGCAGTA	0.117
GCCTCAGC	-0.198

Sequence	PBM E-score
AATTATGC	-0.0219
GACAGAAC	-0.136
CTGCAAGA	-0.0752
ATAACCAT	0.0551
ACCCCATG	0.0775
GCTCCATA	-0.00565
CGTGCTCC	0.0843
ATTATCGG	-0.191
GGGAGTCA	0.47
ACCCCGGG	0.00711
AGAGTCCA	0.144
ATTCGGTG	0.106
AAGCTACT	-0.0354
CTACCGGC	-0.0946
ACCTTGCG	-0.0156
CAAAGAAA	-0.165
TTCCGGAA	-0.184
GACTGACA	0.15
AAATCCGT	-0.0877
GACTCTCC	0.259
AACAGCTC	0.0178
GCGCCCCA	-0.131
TAAGTAAA	-0.181
AGGAAATG	-0.0831
AACCGCCT	0.1

Sequence	PBM E-score
ACGATTAT	0.00603
AGCAGGTG	0.0643
ATATGAAG	-0.0333
CACTAGCC	0.0788
ATGTGCAA	0.0727
CACAAAAA	-0.00088
AAAGTTAG	0.029
ATGTCGCC	0.0236
CATACCAG	-0.0296
GCTGGTTA	0.0858
ACTGTACG	-0.00271
CAAGCCAG	0.00992
AGCCTATC	-0.105
CAAATGGA	-0.0188
CCGTACAA	-0.0297
CGAGCCAG	0.219
ACACTGGT	0.00021
ATAACGTG	-0.095
AATCCACC	0.154
CAGTTGCG	0.107
AAGCTAAA	-0.193
ACAGTTTG	-0.0891
ATTTTGAG	0.0172
CGGTCACC	0.0171
AGCGGGCA	0.0171

Sequence	PBM E-score
ACTTACCC	0.205
CCTGATGA	0.195
AAGAATCG	0.0511
GACAACGC	-0.00826
ACTTCGTA	-0.201
AGCGTCAG	-0.246
GTAAGCTA	-0.047
CAAACAAC	0.165
ATAAACCC	0.223
ACTTCTGA	0.137
ACTACCTC	0.09
CCCACACA	0.0717
ACGACCTG	-0.112
TAAGCCGA	-0.13
AAGTGAGC	-0.0858
GGGGATGA	0.0985
AACTCCTT	-0.0746
CTGGATGC	-0.126
CCGTTGCA	-0.0529
ACGTGCAG	0.14
CAATTGAA	-0.2
GTTATGAA	0.042
ACCTACCG	-0.0874
CGCTGAAG	-0.151
ACCTCGCG	-0.0715

Sequence	PBM E-score
CTCTTTGA	-0.253
GCCACCCA	0.0667
ATCAATTG	0.136
ATGAAGGA	0.0611
CCACCCAC	0.231
AGTGAGGC	-0.0734
GCCTGCTA	-0.166
AGCACGAA	0.14
CTTATGCA	-0.0585
GTAAGTAC	-0.0434
AGGTTCTC	-0.119
CTTCGGCA	0.00118
ACCAAATC	0.00093
AGATTACC	0.129
GAGACTTA	-0.164
AGCCATAA	-0.00291
AGACATCC	0.0426
CTCCATGA	0.125
AAGCGTAA	-0.215
TCAAACGA	-0.0752
GACATATA	0.084
CATTTTAC	-0.0327
ATTCATTC	0.165
AGGCCCCT	-0.3
TACTGCGA	0.0661

Sequence	PBM E-score
CACGGACA	-0.0785
ACGAGTTA	0.162
CCCCAAGA	-0.0317
GCAGCTTA	-0.0202
CGCTATTC	0.0728
AATGCCTC	0.0378
CAGCCGTC	0.165
ATTGTATG	0.141
TAGTAACA	0.00961
AAATTGTA	0.0507
CCTCCCAC	0.0568
TAATGGTA	0.118
TAATTGCA	0.0646
ATACCGCC	0.124
GTCTTGTA	-0.0671
ATCTGGCC	-0.109
GTCTAGAC	-0.298
AACGTTAT	-0.0644
ATTGCGGG	0.0612
CCGGATCG	0.0761
ACGTAACT	-0.0668
CTCATTCC	0.124
ACATACCA	0.0165
GGTCGGGA	0.147
CGCATGGC	0.131

Sequence	PBM E-score
GAAAGACA	-0.0138
CGGCAATC	0.0215
AGTATTTG	-0.00113
GATGACGC	-0.0256
AGAGCAAC	-0.17
GTGTGCCA	-0.0072
CTGTGAGA	0.0386
AAGCGCTC	-0.145
ATTCCTAC	0.0429
AAGTCAAT	0.0223
ATTATCCG	0.143
AGTCACGA	0.411
CGTTACTA	-0.0295
CCGGAGGC	-0.141
CTCTCACA	-0.0943
CGTTCTGA	-0.113
GCAGTTCA	-0.0212
AGAACTCG	-0.177
CAGGTTTC	0.0965
CCGGGTTA	-0.0527
AAGACCGA	-0.0192
AGCGCTAT	0.0728
GTTGCTGA	0.156
CCTTTTCC	-0.177
ACAAACAC	0.221

Sequence	PBM E-score
GGTCAACA	0.117
CATTTTGC	-0.0629
CATCAACC	0.134
AACCAGCG	-0.0412
AGGGATAC	-0.202
CAACACCA	0.0182
GGTGATGA	0.233
GGAGATGA	0.179
AAACGAAC	-0.0903
CGCTACCA	-0.0821
TACGAGCA	-0.0868
GATTCCTA	0.174
ACTAGAAA	-0.0971
AACCCAAC	0.109
TAGTCCCA	-0.0146
ATGAAGCA	-0.0188
ACTTTGAC	-0.0831
CTCAATAC	0.226
GTTCATGA	0.142
AGCGCATG	-0.0159
CATTAGCG	-0.128
AGCAGAAA	-0.0637
ATGCTCAG	0.141
AGAGATGA	0.107
CACATCGG	0.191

Sequence	PBM E-score
GGCACCTA	-0.143
AGCATCTA	0.0249
AGAGAATA	0.0402
AAACATTG	-0.0198
AGTAATTC	-0.183
AGTCGAGC	0.0485
TCCCTTCA	-0.0485
ACACCCAG	0.125
AATAAGGG	-0.109
CTATCCAA	-0.00927
AACATCGG	0.0341
ATTTAAGC	-0.151
CGAATCCA	-0.0103
TGTATACA	0.0245
GTGCATTA	-0.0983
GCAGCCTA	-0.207
AGCTGACG	-0.12
GGACCAAC	0.104
CGACATGA	0.181
TAGCTTCA	-0.112
CTACTTCC	-0.0528
TAGTGATA	0.102
CGAGGTAC	0.0216
AAATGGGC	-0.207
ATATTCTA	0.122

Sequence	PBM E-score
CTTCATTA	0.0378
GACGTAGC	-0.175
ACGCTACG	-0.127
CTGTCCTC	-0.064
GTCAGGTA	0.126
ATAGAGCA	-0.107
GTATGTGA	0.0539
CGTAAACA	-0.034
CATATGTA	0.142
AACTCTCC	-0.0567
AGACATGC	-0.00111
TGCGTGAA	-0.0372
CGAAACAG	0.0846
AGGTGCAT	0.0449
CAGCTGTC	-0.0706
GCTACCAC	0.00628
AACACCGA	0.108
AAGGGGTA	-0.112
ATGCATGA	0.165
CTAGACTC	0.0235
AAGCCTAA	-0.214
ATACCGTC	0.00895
AAGTCTCC	-0.227
CATGAGCA	0.125
CAATTGTG	0.0659

Sequence	PBM E-score
CGCAGATC	-0.0184
CGACTACG	0.188
CTGATACA	0.0817
AGCCACAC	0.189
AAACTCAT	0.205
CGGCGCCG	0.252
TAAACTCA	0.00823
CGAGTCAA	0.278
TAACATCA	0.118
ACCCAGGG	0.188
GAATCCGC	0.0532
TAGGACGA	-0.0939
CCGACCGC	-0.161
ACGCGTCA	0.0944
GTCTGACA	0.148
AGCTCGCC	0.069
GCATCACA	0.0717
GTCTTGCA	-0.138
AATCTACT	0.022
GCATCGAA	-0.248
GCCTACAC	-0.141
ATTCGTGG	0.102
CTGCGGGA	-0.0929
AGACCGTG	-0.0231
ACGTGAGC	-0.101

Sequence	PBM E-score
ACTATACA	0.131
CGAGGGTA	0.00641
TAATATGA	0.158
CGTAATGA	0.0462
ATAAGGAT	0.133
ACAGCTTA	0.0222
CTTGAAGA	-0.243
ATTGCGTA	0.073
AAGTGGCC	-0.124
AAGTACTA	0.0913
AATGACGT	0.0585
ATAGCTAT	-0.132
CATCCGCG	-0.00423
TGATCCAA	0.167
CGGCGTCC	-0.051
CGAGCCCA	0.086
AGTCGCCC	0.346
ACCGCTAC	0.00858
AAGTCATT	-0.0196
CAATGAGC	-0.0675
TATAAAAA	-0.0729
AGAGGTAG	-0.205
GCTGGTAA	-0.148
CGGCATCA	-0.0137
CTCGAGAA	-0.188

Sequence	PBM E-score
AGTAGTTA	0.0583
GTAAAACA	-0.157
AGTCGGAT	0.216
CGCTATGA	0.112
ATGCTAGG	-0.069
AAATCACG	0.173
CCCTCAGC	-0.0147
CCCGCGGC	0.272
GGCCTCAA	-0.0529
AGCCCCGG	0.155
CATACATG	0.205
GGGCGCGA	0.195
CTCCAAGC	-0.0811
AGAGGAAG	-0.166
CAGCCTCC	-0.303
ATGTTACG	-0.226
ACTCGCAA	0.0242
TCCGCAGA	0.0168
ATCCGCGC	0.024
